PubChem BioAssay AID485281 (National Center for Advancing Translational Sciences (NCATS), 2010)
Several values for one entry are separate records, joined by “and”; a condition that tells them apart may be missing. Equal entries are not always repeated. Hit rate of the full screen: of about 350,000 compounds, about 260 (0.074%) were called active. The shares of active, inactive and inconclusive entries below differ from those in the screen. Calls come from the whole dose curve; as a rule, active = well fitted inhibition curve with a large enough effect; inconclusive = small, poorly fitted or top-dose-only effect; inactive = no such curve, though single readings can be large or run the other way. Potencies beside an inconclusive call are fits to weak or partial responses and may not hold up.

Molecular target: Ferritin light chain (Equus caballus) (UniProt P02791)
Assay: qHTS Assay for Identification of Novel General Anesthetics; note: nearly all actives have a fitted effect of over 20% in size
Conditions: apoferritin/1-aminoanthracene competitive binding, fluorescence; series mostly up to 77.5 µM
In short: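 Horse-spleen apoferritin (10 uM) was mixed with 50% saturated 1-aminoanthracene in PBS, exposed to compounds for 10 min at room temperature, and read for fluorescence (ex 380 nm, em 535 nm). Competitive displacement was fitted with a four-parameter Hill equation.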
Potency is the fitted concentration of half-maximal effect; tags give direction and shape of the fitted curve.

UniProt P02791, sequence (P02791 whole entry, looked up): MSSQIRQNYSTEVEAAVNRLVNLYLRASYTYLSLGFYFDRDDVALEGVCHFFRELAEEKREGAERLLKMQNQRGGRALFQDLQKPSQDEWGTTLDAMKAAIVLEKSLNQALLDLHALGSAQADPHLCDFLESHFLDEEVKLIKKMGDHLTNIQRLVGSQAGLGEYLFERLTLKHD

SMILES	Potency
CN(C(=O)Oc1ccc(C(C)(C)C)cc1)c1ccccc1	inconclusive: 28.2 µM [inhibitor, partial curve]
CC(=O)Nc1ccc(OC(=O)N(C)c2ccccc2)cc1	inconclusive: 31.6 µM [inhibitor, partial curve]
O=c1c2ccccc2[se]n1-c1ccccc1	inconclusive: 12.6 µM [inhibitor, partial curve]
CC1=CC[C@@H]2[C@@H](C1)c1c(O)cc(CC#CCCCNS(C)(=O)=O)cc1OC2(C)C	inconclusive: 31.6 µM [inhibitor, partial curve]
CCCCN1C(=O)NC(=O)C2(Cc3c(nc4ccccn4c3=O)N3CCc4ccccc4C32)C1=O (centres undefined)	inconclusive: 28.2 µM [inhibitor, partial curve]
C[n+]1c(-c2ccccc2)c2cc(N)ccc2c2ccc(N)cc21	inconclusive: 20 µM [inhibitor, partial curve]
CCCc1cc2c(n1Cc1ccco1)C(C)C1CN(C(=O)c3ccccc3)C(C)(C(=O)OC)C21 (centres undefined)	inconclusive: 39.8 µM [inhibitor, partial curve]
CCOC(=O)C1CCN(Cc2ccc(Cl)nc2)CC1	inactive
O=C1NC(=O)N(c2ccc3c(c2)OCO3)C(=O)/C1=C\c1ccc(N2CCCCC2)o1	inactive
CC(C)[C@H]1C(=O)N2CCC[C@H]2[C@]2(O)O[C@](NC(=O)[C@@H]3C=C4c5cccc6[nH]cc(c56)C[C@H]4N(C)C3)(C(C)C)C(=O)N12	inactive
Cc1nc2cc(F)ccc2n1C1CCN(Cc2nnnn2CCc2ccccc2)CC1	inconclusive: 10 µM [inhibitor, full curve, poor fit]
COc1ccccc1C(=O)Nc1ccc2c(c1)CC1(C(=O)N(C)C(=O)N(C)C1=O)C1CCCN21 (centres undefined)	inconclusive: 22.4 µM [inhibitor, partial curve]
CCN(CC)C(=O)Oc1ccc(OC(=O)N(CC)CC)cc1	inconclusive: 20 µM [inhibitor, partial curve]
O=C1NC(=O)N(Cc2ccccc2)C(=O)/C1=C/c1cnc(-c2ccccc2)nc1	inconclusive: 31.6 µM [inhibitor, single point]
Cc1ccc(C(c2nnnn2Cc2ccccc2)N2CC=C(c3ccc(F)cc3)CC2)cc1 (centres undefined)	inconclusive: 15.8 µM [inhibitor, partial curve]
Cc1ccc(N)c(C(=O)c2ccc(Br)cc2)c1	inconclusive: 39.8 µM [inhibitor, partial curve]
O=C(c1cccc(C(F)(F)F)c1)C1CCCN(Cc2ccccc2O)C1 (centres undefined)	inconclusive: 28.2 µM [inhibitor, partial curve]
O=C(Nc1ccc(Br)cc1C(=O)O)c1ccc2c(c1)C(=O)N(Cc1ccccc1)C2=O	inconclusive: 17.8 µM [inhibitor, partial curve]
CC1COC2=C1C(=O)C(=O)c1c2ccc2c1CCCC2(C)C (centres undefined)	inconclusive: 35.5 µM [inhibitor, single point]
CC1(C)CN=C(Nc2ccccc2C(F)(F)F)S1	inconclusive: 28.2 µM [inhibitor, partial curve]
COc1ccc(C2CC(c3c(O)n(C4CCCCC4)c(=O)[nH]c3=O)=Nc3ccccc3S2)cc1 (centres undefined)	inactive
Cc1ccc(-n2c(O)c(/C=N/N3CCCCCC3)c(=O)[nH]c2=O)cc1C	inconclusive: 5.62 µM [inhibitor, full curve]

SMILES	Potency
CC(=O)c1cn(Cc2ccccc2F)c2ccccc12	inconclusive: 28.2 µM [inhibitor, partial curve]
Cc1cccc(OCC(=O)N2CCN(Cc3cccnc3)CC2)c1	inactive
Clc1ccc(Sc2oc(/C=N/n3cnnc3)cc2Br)cc1	inconclusive: 28.2 µM [inhibitor, partial curve]
CN(C[C@H](Cc1ccccc1)N(C[C@H](Cc1ccccc1)N(CCc1cc(C(F)(F)F)cc(C(F)(F)F)c1)N=O)N=O)N=O	inconclusive: 3.16 µM [inhibitor, full curve]
CCOc1ccc(NC(=O)CN(c2ccc(Cl)cc2C)S(=O)(=O)c2ccccc2)cc1	inactive
N=Cc1c(O)n(-c2ccc(C34CC5CC(CC(C5)C3)C4)cc2)c(=O)[nH]c1=O	inconclusive: 35.5 µM [inhibitor, partial curve]
CC(=O)Nc1ccccc1C(=O)OCC(=O)c1cccc2ccccc12	inconclusive: 31.6 µM [inhibitor, partial curve]
Cc1ccc(CNCc2c(C(=O)O)n(Cc3ccccc3C)c3cc(C)ccc23)cc1	inconclusive: 5.01 µM [inhibitor, single point]
CCCCC/C=C\C/C=C\C/C=C\C/C=C\CCCC(=O)N[C@H](C)CO	inconclusive: 28.2 µM [inhibitor, partial curve]
Cc1ccsc1/C=C1\C(=O)NC(=S)N(C)C1=O	inactive
CCCCn1c(O)c(C(CC)=NCc2ccc(F)cc2)c(=O)[nH]c1=O	inconclusive: 35.5 µM [inhibitor, partial curve]
O=[N+]([O-])c1ccc(N2CCCCCC2)c2ncccc12	inconclusive: 25.1 µM [inhibitor, partial curve]
O=C(CN1CC=C(c2ccccc2)CC1)NC(=O)NCc1ccccc1	inconclusive: 35.5 µM [inhibitor, single point]
COc1ccc(CN2C(=O)NC(=O)/C(=C\c3cc(OC)c(OC)c(OC)c3)C2=O)cc1	inconclusive: 35.5 µM [inhibitor, single point]
Cn1c(O)c(C=NC2CCN(Cc3ccccc3)CC2)c(=O)n(C)c1=O	inconclusive: 39.8 µM [inhibitor, partial curve]
COc1cccc(N2C(=O)NC(=O)/C(=C/c3ccc4c(c3)Cc3ccccc3-4)C2=O)c1	inconclusive: 25.1 µM [inhibitor, partial curve]
CCCCC/C=C\C/C=C\C/C=C\C/C=C\CCCC(=O)NCCCl	inconclusive: 28.2 µM [inhibitor, partial curve]
Cc1ccccc1CN1CCN(c2ccc(Cl)cc2)CC1	inactive
O=C1N(c2nncs2)CCN1[N+](=O)[O-]	inactive
COC(=O)C(O)(c1ccc(N(C)C)cc1)C(F)(F)F (centres undefined)	inconclusive: 31.6 µM [inhibitor, partial curve]
Cc1ccc2c(c1)CNc1ccccc1O2	inconclusive: 31.6 µM [inhibitor, partial curve]
Cc1cn([C@H]2C[C@H](O)[C@@H](CO)O2)c(=O)[nH]c1=O	inactive

SMILES	Potency
CC(C)COC(=O)n1c(=O)oc2cc(S(=O)(=O)N3CCCCC3)ccc21	inconclusive: 39.8 µM [inhibitor, partial curve, poor fit]
CN1CC(C(=O)c2ccc(Cl)cc2)C(c2ccc(Cl)cc2Cl)C1 (centres undefined)	inactive
COc1ccc(OC)c(CCNCc2c(C(=O)O)c(C)n(Cc3ccc(F)cc3Cl)c2C)c1	inconclusive: 25.1 µM [inhibitor, partial curve]
Cc1ccc(/C=C2/C(=O)NC(=O)N(CCc3ccc(F)cc3)C2=O)o1	inactive
CCCCCCCCCC(=O)O[C@H]1CC[C@H]2[C@@H]3CCC4=CC(=O)CC[C@@H]4[C@H]3CC[C@]12C	inconclusive: 15.8 µM [inhibitor, partial curve]
Cc1ccc(Cn2cc(C=O)c3ccccc32)cc1	inconclusive: 39.8 µM [inhibitor, partial curve]
CCCCCCCCCCCCCCCC[N+](C)(C)C	inconclusive: 50.1 µM [inhibitor, single point]
CC(C)(O)C1O[C@H]2CC[C@@]3(C)[C@@](O)(CC[C@H]4Cc5c([nH]c6ccccc56)[C@@]43C)C2=CC1=O (some centres undefined)	inconclusive: 28.2 µM [inhibitor, partial curve]
O=C=NCCCCN=C=O	inactive
Cc1cc(C)cc(OCCOc2cccc(C=C3C(=O)NC(=O)NC3=O)c2)c1	inconclusive: 50.1 µM [inhibitor, single point]
CN1C(=O)NC(=O)[C@]2(Cc3ccccc3N3CCN(c4ccccc4)CC32)C1=O (some centres undefined)	inconclusive: 39.8 µM [inhibitor, partial curve]
O=C(COC(=O)c1cccc(NC(=O)c2ccc(Br)cc2)c1)c1ccc(Br)cc1	inconclusive: 3.55 µM [inhibitor, full curve, poor fit]
Cc1ccccc1Cc1c(C)nc2nc(SCC(=O)N3CCC4(CC3)OCCO4)nn2c1C	inconclusive: 25.1 µM [inhibitor, partial curve]
O=C1c2cccc3cc([N+](=O)[O-])cc(c23)C(=O)N1c1ccccc1O	inconclusive: 25.1 µM [inhibitor, partial curve]
FC(F)(F)c1ccc2c(c1)nnn2C1CCN(Cc2nnnn2Cc2ccccc2)CC1	inactive
CCCCCCCCCOc1ccc2[nH]cc(CCN)c2c1	inconclusive: 28.2 µM [inhibitor, partial curve] and inconclusive: 25.1 µM [inhibitor, partial curve]
CCC(C)C(NC(=O)CCCNC(=O)CCC(=O)OC1O[C@H]2OC3(C)CC[C@H]4[C@H](C)CCC(C1C)C24OO3)C(=O)O (some centres undefined)	inactive
C#CCN(C)[C@@H](C)Cc1ccccc1	inconclusive: 11.2 µM [inhibitor, single point]
CCN(CC)C(=O)c1ccc(NC(=O)Nc2ccccc2F)cc1	inconclusive: 14.1 µM [inhibitor, partial curve]
CC(C)(C)c1cc(OC(=O)Cc2ccccc2)ccc1O	inconclusive: 39.8 µM [inhibitor, partial curve]
